Assay [1] has as its target T1, BMP9 (human, UniProt Q9UK05 320-429).
T1 construct: also called hBMP-9; hBMP9
T1 sequence (looked up): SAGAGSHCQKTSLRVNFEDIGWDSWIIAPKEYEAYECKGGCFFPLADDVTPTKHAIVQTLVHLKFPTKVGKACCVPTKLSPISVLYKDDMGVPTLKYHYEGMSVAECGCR
In words: SPR kinetics; CHO-cell-derived protein. For orientation: In SPR one partner is held on a chip, and binding of the other changes the refractive index at the surface.

The target of assay [2] is T2, BMP7 (human, UniProt P18075 293-431).
T2 construct: also called hBMP-7
T2 sequence (looked up): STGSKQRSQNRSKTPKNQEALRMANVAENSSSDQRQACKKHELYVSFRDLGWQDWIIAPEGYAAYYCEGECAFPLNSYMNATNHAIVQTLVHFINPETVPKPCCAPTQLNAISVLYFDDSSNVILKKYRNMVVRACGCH
In words: SPR (Biacore); captured hENG(26-586)-hFc, soluble ligand; - means undetectable. The source says: (§1) Considered a co-receptor, ENG is widely thought to function by facilitating the binding of TGF-01 and -3 to multi-protein complexes of type I and type II receptors. To investigate the possibility of direct ligand binding by isolated ENG, surface plasmon resonance (SPR) methodology (Biacore™ instrument) was used to screen for binding of captured proteins comprising the full-length extracellular domain of ENG to a variety of soluble human TGF-β family ligands.
(§2) Thus, selective high-affinity binding of BMP9 and BMP10 is a previously unrecognized property of the ENG extracellular domain.

The target in assay [3] is T3, TGF-β3 (human, UniProt P10600 301-412).
T3 construct: also called hTGF-β3
T3 sequence (looked up): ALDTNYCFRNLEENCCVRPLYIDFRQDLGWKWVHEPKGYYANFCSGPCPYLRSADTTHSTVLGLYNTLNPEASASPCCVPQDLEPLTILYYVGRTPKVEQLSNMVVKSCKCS
The assay is described as above.
Excerpt: as §1, §2

Assay [4] deals with T4, BMP2 (human, UniProt P12643 283-396).
T4 construct: also called hBMP-2
T4 sequence (looked up): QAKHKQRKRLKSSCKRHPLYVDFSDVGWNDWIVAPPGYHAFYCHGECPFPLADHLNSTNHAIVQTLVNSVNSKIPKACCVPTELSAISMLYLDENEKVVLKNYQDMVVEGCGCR
The description is as above.
Excerpt: as §1, §2

Assay [5] concerns the target T5, TGF-β2 (human, UniProt P61812 303-414).
T5 construct: also called hTGF-β2
T5 sequence (looked up): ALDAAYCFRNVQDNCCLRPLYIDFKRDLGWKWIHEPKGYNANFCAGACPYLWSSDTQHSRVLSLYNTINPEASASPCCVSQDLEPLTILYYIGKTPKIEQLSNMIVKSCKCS
The description is as above.
Excerpt: as §1, §2

In assay [6] the target is T6, hBMP-2/7 (human, UniProt P12643 283-396; P18075 293-431).
T6 sequence (looked up) 1: T4 sequence (looked up)
T6 sequence (looked up) 2: T2 sequence (looked up)
The description is as above.
Excerpt: as §1, §2

Assay [7] concerns the target T7, TGF-β1 (human, UniProt P01137 partial chain).
T7 construct: also called hTGF-β1; hTGF-βI
The assay is described as above.
Excerpt: as §1, §2

For assay [8], the target named is T8, activin A (human, UniProt P08476 311-426).
T8 construct: also called hActivin A
T8 sequence (looked up): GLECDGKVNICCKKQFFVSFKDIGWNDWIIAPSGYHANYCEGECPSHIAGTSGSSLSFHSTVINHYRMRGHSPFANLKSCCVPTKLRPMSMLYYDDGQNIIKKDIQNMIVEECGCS
Described as above.
Excerpt: as §1, §2

For assay [9], the target named is T9, BMP10 (human, UniProt O95393 317-424).
T9 construct: also called hBMP-10; hBMP10
T9 sequence: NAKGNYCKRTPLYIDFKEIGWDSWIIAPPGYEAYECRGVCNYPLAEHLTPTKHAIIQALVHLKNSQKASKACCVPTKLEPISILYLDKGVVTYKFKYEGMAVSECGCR
In words: SPR kinetics; CHO-cell-derived protein.

For assay [10], the target named is T9, BMP10. In words: cell-based or functional assay.
For assay [11], the target named is T9, BMP10. Put plainly: cell-based or functional assay. This is another data set of the same source.
Assay [12] concerns the target T1, BMP9. In words: SPR kinetics.

Where “and” joins values, the source holds several entries; their conditions need not be identical. Equal entries are not always repeated.

T7 sequence (P01137 279-390 limits assumed): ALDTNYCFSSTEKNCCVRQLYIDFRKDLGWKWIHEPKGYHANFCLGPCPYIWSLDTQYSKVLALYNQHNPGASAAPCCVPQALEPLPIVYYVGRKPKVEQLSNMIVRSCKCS

B1: hENG(26-586)-hFc (Fc fusion)
chain: ETVHCDLQPVGPERDEVTYTTSQVSKGCVAQAPNAILEVHVLFLEFPTGPSQLELTLQASKQNGTWPREVLLVLSVNSSVFLHLQALGIPLHLAYNSSLVTFQEPPGVNTTELPSFPKTQILEWAAERGPITSAAELNDPQSILLRLGQAQGSLSFCMLEASQDMGRTLEWRPRTPALVRGCHLEGVAGHKEAHILRVLPGHSAGPRTVTVKVELSCAPGDLDAVLILQGPPYVSWLIDANHNMQIWTTGEYSFKIFPEKNIRGFKLPDTPQGLLGEARMLNASIVASFVELPLASIVSLHASSCGGRLQTSPAPIQTTPPKDTCSPELLMSLIQTKCADDAMTLVLKKELVAHLKCTITGLTFWDPSCEAEDRGDKFVLRSAYSSCGMQVSASMISNEAVVNILSSSSPQRKKVHCLNMDSLSFQLGLYLSPHFLQASNTIEPGQQSFVQVRVSPSVSEFLLQLDSCHLDLGPEGGTVELIQGRAAKGNCVSLLSPSPEGDPRFSFLLHFYTVPIPKTGTLSCTVALRPKTGSQDQEVHRTVFMRLNIISPDLSGCTSKGTGGG[gap - human IgG1 Fc]
notes: also called full-length construct; Full Length
As a reminder, the Kd is the constant that tells how readily two partners part at equilibrium. Higher therefore signals a looser complex. Broadly, the koff is a measure of how fast the partners let go of each other. High values mean fast dissociation, low ones slow dissociation. Regarding B1, the Kd in assay [1] stood at 0.033 nM; in assay [9], 0.49 nM. Further, the figures for the koff in [1] and in [9] were 0.0025 s⁻¹ and 0.011 s⁻¹, respectively. The binding result in [2], in assay [3], in assay [4], in assay [5], in assay [6] and in assay [7] was “no binding (tested: 100 nM)” in each case. In [8], the binding result is listed as “no binding (tested: 100 nM)”.

B2: BMP10pro(22-312)-hFc (Fc fusion)
chain: SPIMNLEQSPLEEDMSLFGDVFSEQDGVDFNTLLQSMKDEFLKTLNLSDIPTQDSAKVDPPEYMLELYNKFATDRTSMPSANIIRSFKNEDLFSQPVSFNGLRKYPLLFNVSIPHHEEVIMAELRLYTLVQRDRMIYDGVDRKITIFEVLESKGDNEGERNMLVLVSGEIYGTNSEWETFDVTDAIRRWQKSGSSTHQLEVHIESKHDEAEDASSGRLEIDTSAQNKHNPLLIVFSDDQSSDKERKEELNEMISHEQLPELDNLGLDSFSSGPGEEALLQMRSNIIYDSTATG[gap - human IgG1 Fc and a few adjoining residues]
On to B2, for which the “IC50 (BMP 10); SBE4-luc luciferase reporter in HMVEC cells” value in [10] was 17.7 ng/ml and 150 pM. Also, in assay [11], the “fold greater antagonism of BMP10 activity than BMP10pro(22-315)-hFc; SBE4-luc reporter” value was not below 3 fold.

B3: hENG(26-346)-hFc (Fc fusion)
chain: ETVHCDLQPVGPERDEVTYTTSQVSKGCVAQAPNAILEVHVLFLEFPTGPSQLELTLQASKQNGTWPREVLLVLSVNSSVFLHLQALGIPLHLAYNSSLVTFQEPPGVNTTELPSFPKTQILEWAAERGPITSAAELNDPQSILLRLGQAQGSLSFCMLEASQDMGRTLEWRPRTPALVRGCHLEGVAGHKEAHILRVLPGHSAGPRTVTVKVELSCAPGDLDAVLILQGPPYVSWLIDANHNMQIWTTGEYSFKIFPEKNIRGFKLPDTPQGLLGEARMLNASIVASFVELPLASIVSLHASSCGGRLQTSPAPIQTTPPTG[gap - human IgG1 Fc and a few adjoining residues]
With B3, the “fold decrease in dissociation rate compared to the full-length construct” value in [12] is 10 fold.

B4: BMP10pro(22-315)-hFc (Fc fusion)
chain: SPIMNLEQSPLEEDMSLFGDVFSEQDGVDFNTLLQSMKDEFLKTLNLSDIPTQDSAKVDPPEYMLELYNKFATDRTSMPSANIIRSFKNEDLFSQPVSFNGLRKYPLLFNVSIPHHEEVIMAELRLYTLVQRDRMIYDGVDRKITIFEVLESKGDNEGERNMLVLVSGEIYGTNSEWETFDVTDAIRRWQKSGSSTHQLEVHIESKHDEAEDASSGRLEIDTSAQNKHNPLLIVFSDDQSSDKERKEELNEMISHEQLPELDNLGLDSFSSGPGEEALLQMRSNIIYDSTARIRTG[gap - human IgG1 Fc and a few adjoining residues]
As for B4, the “IC50 (BMP 10); SBE4-luc luciferase reporter in HMVEC cells” value in [10] is 61.2 ng/ml and 517 pM.

These data come from patent US20230285506A1 (ACCELERON PHARMA, published 2023).
